Among all 310,000 compounds or so, about 2,200 (0.71%) showed an effect of 50% or more. Effects have a minus sign here. This is one part of the list.
target: human ether-à-go-go-related gene (hERG) potassium channel (human, UniProt Q12809); assay: primary screen, population patch clamp on CHO cells stably expressing hERG
Sequence (Q12809 whole entry, looked up): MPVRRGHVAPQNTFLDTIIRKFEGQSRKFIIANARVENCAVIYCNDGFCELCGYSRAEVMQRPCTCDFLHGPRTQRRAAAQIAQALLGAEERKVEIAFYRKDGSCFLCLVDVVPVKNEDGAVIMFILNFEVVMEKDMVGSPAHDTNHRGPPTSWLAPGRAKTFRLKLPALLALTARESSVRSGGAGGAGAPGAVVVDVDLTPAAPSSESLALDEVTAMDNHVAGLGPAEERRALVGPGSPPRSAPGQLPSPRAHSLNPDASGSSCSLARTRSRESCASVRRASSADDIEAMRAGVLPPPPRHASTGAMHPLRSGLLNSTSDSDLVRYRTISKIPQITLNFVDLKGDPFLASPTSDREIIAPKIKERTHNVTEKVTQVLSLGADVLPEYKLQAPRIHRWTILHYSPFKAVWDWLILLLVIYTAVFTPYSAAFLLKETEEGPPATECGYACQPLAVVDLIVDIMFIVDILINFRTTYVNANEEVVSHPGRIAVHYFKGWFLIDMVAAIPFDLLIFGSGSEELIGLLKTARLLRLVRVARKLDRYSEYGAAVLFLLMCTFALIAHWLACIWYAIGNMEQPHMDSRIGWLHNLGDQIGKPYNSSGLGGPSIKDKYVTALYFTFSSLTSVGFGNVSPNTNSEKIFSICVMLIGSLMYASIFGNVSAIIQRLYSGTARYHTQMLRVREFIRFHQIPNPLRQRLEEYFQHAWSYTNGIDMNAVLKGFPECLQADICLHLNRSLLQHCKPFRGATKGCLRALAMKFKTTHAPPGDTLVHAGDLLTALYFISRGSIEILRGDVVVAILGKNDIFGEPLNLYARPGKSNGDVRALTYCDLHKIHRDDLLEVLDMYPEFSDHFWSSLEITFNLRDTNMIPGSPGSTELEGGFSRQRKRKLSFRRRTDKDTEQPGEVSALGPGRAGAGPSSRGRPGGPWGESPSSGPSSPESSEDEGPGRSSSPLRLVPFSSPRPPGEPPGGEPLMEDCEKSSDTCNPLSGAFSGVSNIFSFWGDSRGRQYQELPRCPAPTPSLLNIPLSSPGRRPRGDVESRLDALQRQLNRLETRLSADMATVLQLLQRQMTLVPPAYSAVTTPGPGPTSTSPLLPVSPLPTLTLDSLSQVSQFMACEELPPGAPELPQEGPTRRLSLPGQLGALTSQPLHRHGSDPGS

SMILES | hERG current change (%, negative = inhibition) at 1uM [%]
Cc1cccc(NC(=O)c2ccc3[nH]c(=O)c(=O)[nH]c3c2)n1 | 5.04
Cc1ccc(N(CC(=O)NCc2ccc3c(c2)OCO3)S(=O)(=O)c2c(C)noc2C)cc1 | 9.76
N#Cc1c(NC(=O)CSC2=NCCS2)sc2c1CCCC2 | -0.832
CCOc1ccccc1NC(=S)NCCc1ccc(F)cc1 | 8.54
CC(=O)NC(=S)Nc1ccc(NC(=S)NC(=O)c2ccc([N+](=O)[O-])cc2)cc1 | 16.5
O=C(Nc1ncccn1)c1cc([N+](=O)[O-])cc([N+](=O)[O-])c1 | 1.23
Cc1ccc(Cl)cc1N1CCN(S(=O)(=O)c2c(C)[nH]c(=O)[nH]c2=O)CC1 | 10.5
COc1cccc(-c2cc(N)nn2C(=O)Nc2ccc(Cl)cc2)c1 | -2.38
O=c1c(-c2ccc(Cl)cc2)[n+]([O-])c2ccccc2n1O | 14.8
CC1Cc2ccccc2N1c1ncnc2c1nnn2Cc1ccccc1 (centres unmarked) | 5.31
CC(=O)N1c2ccc(S(=O)(=O)N3CCC(C(=O)NC(C)c4ccccc4)CC3)cc2CC1C (centres unmarked) | 10.1
COc1ccc(-c2n[nH]c3c2CN(C(=O)c2ccccc2)CC3)cc1 | 7.54
CC1CC(NC(=O)N(C)C)N(C)C(=O)N1 (centres unmarked) | 6.47
COc1ccc(NS(=O)(=O)c2ccc3c(c2)oc(=O)n3C)c(OC)c1 | 6.32
CCOc1c(Br)cc(C(=O)N2CCCN(C)CC2)cc1OC.Cl | 15.8
CCOc1ccc(NC(=S)N2CCCCCC2)cc1 | 0.404
Cc1cc(C)n(C2CC(=O)N(c3ccccc3)C2=O)n1 (centres unmarked) | 6.48
Cc1ccc(OCCN2CCCC2)cc1.O=C(O)C(=O)O | 7.22
Cc1cc(C)c(OCC(=O)Nc2ccccc2N2CCCCC2)c(C)c1 | 11.9
Cn1[nH]c(=O)c2ccccc2c1=O | 3.95
CCCCN(C)CCNS(=O)(=O)c1ccc2c(c1)n(C)c(=O)c(=O)n2C | 11.8
O=C(CCc1nc2ccccc2c(=O)[nH]1)Nc1cc(Cl)ccc1N1CCCCC1 | -0.403

SMILES | hERG current change (%, negative = inhibition) at 1uM [%]
CCOc1ccc(CCNC(=O)CCc2nnc3ccc(N4CCOCC4)nn23)cc1 | -0.207
N=C1C(c2nc3ccccc3[nH]2)=C(O)CN1NC(=O)COc1cccc(F)c1 | 3.17
O=C(NCc1ccco1)c1ccc(NC(=O)C2COc3ccccc3O2)cc1 (centres unmarked) | 9.03
CC12CN3CCN(CC(C3)/C1=N\NC(=O)Nc1cccc(Cl)c1)C2 | 11
O=S(=O)(Nc1ncccn1)c1ccc(Nc2ncnc3ccccc23)cc1 | -8.91
CCc1ccc(NC(=O)c2ccc(S(=O)(=O)NCc3cccnc3)cc2)cc1 | 9.34
CCOc1cc(/C=N/NC(=O)C(=O)NC)cc(Br)c1O | 14.8
COC(=O)c1csc(S(=O)(=O)N2CCOCC2)c1OC | 17.2
Cc1c(C)n(CC(O)CN2CCOCC2)c2ccccc12.O=C(O)C(=O)O (centres unmarked) | -2.16
COc1ccc(OCc2cc(C(=O)N3CCCC(O)C3)no2)c2ccccc12 (centres unmarked) | 4.89
Nc1nnc(SCCCC(=O)c2ccccc2)s1 | 5.23
C/C(=N\N=C(/N)SC1CC(=O)N(c2ccc(Cl)c(Cl)c2)C1=O)c1cccs1 (centres unmarked) | 12.3
COc1ccc(-n2cc(-c3ccccc3)c3c(N4CC(C)OC(C)C4)ncnc32)cc1 (centres unmarked) | 13.7
CS(=O)(=O)N(CC(=O)N1CCOCC1)c1ccccc1 | 15.4
CC(Oc1ccc2c(-c3ccccc3)cc(=O)oc2c1)C(=O)NC(Cc1c[nH]c2ccc(O)cc12)C(=O)O (centres unmarked) | 12.1
Cc1ccc2nc(NC(=O)C3CCCN(S(=O)(=O)c4cccnc4)C3)sc2c1 (centres unmarked) | 7.66
O=C(c1cnn2ccccc12)N1CCN(C2CCCCC2)CC1 | 3.68
O=c1cc(O)c(-c2ccccc2)c(Cl)[nH]1 | 11.9
CC(=O)C(Cc1ccc(Cl)nc1)Cc1ccc(Cl)nc1 | 8.48
Fc1ccccc1C1c2cccn2CCN1C(=S)Nc1ccc(Br)cc1 (centres unmarked) | 12.6
Cc1cccc(OCCOCCSc2ncccn2)c1 | -3.25
COC(=O)Cn1c2[n+](c3ccccc31)CC(O)CS2.[Br-] (centres unmarked) | 12.3

From PMC4336329 (PLoS ONE, 2015)
